Experiment [1] deals with T1, recombinant human IGFBP-3 (human, UniProt P17936).
T1 construct: Secreted recombinant protein
The experiment can be described thus: BIAcore kinetics, IGF variant immobilised, IGFBP-3 injected.

Experiment [2] addresses T1, recombinant human IGFBP-3. The experiment can be described thus: BIAcore.
The target in a further experiment is IGF type I receptor (UniProt P08069 31-1367, limits assumed). Nature of the experiment: cell-based or functional assay.
A further experiment addresses T2, human IGFBP-1 (human, UniProt P08833 26-259).
T2 construct: Secreted recombinant protein
T2 sequence (looked up): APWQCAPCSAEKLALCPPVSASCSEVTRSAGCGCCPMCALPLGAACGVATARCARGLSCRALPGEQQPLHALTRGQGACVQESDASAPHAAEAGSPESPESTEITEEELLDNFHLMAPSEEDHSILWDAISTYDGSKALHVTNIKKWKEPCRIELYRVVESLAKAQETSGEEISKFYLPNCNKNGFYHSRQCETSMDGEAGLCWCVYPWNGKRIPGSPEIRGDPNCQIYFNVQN
The experiment can be described thus: BIAcore.

T1 sequence (P17936 28-291 limits assumed): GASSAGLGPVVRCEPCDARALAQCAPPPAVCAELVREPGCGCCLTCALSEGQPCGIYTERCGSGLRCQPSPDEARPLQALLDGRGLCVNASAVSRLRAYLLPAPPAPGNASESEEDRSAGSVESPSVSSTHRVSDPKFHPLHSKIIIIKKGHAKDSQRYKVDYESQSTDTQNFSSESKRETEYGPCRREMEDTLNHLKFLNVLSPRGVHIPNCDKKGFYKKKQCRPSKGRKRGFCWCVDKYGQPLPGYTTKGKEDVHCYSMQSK
Sequence of IGF type I receptor (P08069 31-1367 limits assumed): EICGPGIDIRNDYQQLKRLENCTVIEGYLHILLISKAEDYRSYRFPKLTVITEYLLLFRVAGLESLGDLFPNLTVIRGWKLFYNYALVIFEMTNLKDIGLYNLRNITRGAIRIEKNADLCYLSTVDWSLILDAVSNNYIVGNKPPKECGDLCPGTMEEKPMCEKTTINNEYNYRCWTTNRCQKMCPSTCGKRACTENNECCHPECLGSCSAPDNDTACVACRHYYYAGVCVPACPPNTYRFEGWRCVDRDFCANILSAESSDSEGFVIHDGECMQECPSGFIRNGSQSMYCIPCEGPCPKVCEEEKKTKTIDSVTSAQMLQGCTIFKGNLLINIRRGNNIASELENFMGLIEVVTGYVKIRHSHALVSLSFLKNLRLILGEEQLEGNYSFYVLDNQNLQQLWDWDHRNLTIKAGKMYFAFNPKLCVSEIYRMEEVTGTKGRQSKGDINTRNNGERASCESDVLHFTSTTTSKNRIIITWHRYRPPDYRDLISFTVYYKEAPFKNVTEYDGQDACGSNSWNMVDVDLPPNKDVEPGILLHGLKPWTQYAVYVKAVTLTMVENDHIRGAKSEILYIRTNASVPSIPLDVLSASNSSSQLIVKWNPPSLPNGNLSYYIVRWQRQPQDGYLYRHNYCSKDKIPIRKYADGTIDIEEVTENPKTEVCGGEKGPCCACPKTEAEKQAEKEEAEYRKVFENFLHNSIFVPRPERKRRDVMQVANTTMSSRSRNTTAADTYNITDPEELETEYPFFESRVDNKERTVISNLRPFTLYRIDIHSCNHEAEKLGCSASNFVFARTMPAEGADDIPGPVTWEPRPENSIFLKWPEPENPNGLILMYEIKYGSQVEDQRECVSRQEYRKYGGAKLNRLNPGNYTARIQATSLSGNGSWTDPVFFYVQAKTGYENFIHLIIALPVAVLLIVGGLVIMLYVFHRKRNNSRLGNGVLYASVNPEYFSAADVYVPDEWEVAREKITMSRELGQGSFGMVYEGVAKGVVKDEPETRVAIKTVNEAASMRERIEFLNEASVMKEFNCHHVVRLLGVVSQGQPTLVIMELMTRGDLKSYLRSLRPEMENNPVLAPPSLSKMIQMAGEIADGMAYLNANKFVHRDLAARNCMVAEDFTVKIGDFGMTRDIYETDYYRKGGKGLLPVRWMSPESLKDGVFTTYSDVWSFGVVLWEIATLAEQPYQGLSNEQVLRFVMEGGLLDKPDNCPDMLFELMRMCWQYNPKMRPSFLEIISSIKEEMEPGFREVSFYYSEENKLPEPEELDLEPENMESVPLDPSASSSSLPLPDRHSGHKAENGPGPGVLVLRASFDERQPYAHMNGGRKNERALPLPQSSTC

B1: E3A/F49A IGF-I (soluble, purified double mutant) (ligand)
chain: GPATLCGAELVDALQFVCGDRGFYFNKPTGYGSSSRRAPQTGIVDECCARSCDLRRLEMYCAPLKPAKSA
Regarding B1, in experiment [1], the dissociation rate constant (koff) came out at 0.00133 s⁻¹ and the kon was 74000 M⁻¹ s⁻¹.

B2: F16A/F49A IGF-I (soluble double mutant) (ligand)
chain: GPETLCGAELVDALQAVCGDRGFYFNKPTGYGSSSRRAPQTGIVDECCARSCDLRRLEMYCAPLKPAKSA
Consider B2, for which the “KD(mutant)/KD(IGF-I)” value in experiment [2] was found to be 65.6 fold.

B3: F49A IGF-I (soluble, purified) (ligand)
chain: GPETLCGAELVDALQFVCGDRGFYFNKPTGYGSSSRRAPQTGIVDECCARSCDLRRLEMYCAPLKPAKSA
notes: Made on the wild-type template pBKIGF2B-f1-ori; also called F49A IGF variant
Take B3: the “KIRA (kinase receptor activation assay) EC50” value with IGF type I receptor stood at 0.02 mg/L. In addition, the “KD(mutant)/KD(IGF-I)” value with human IGFBP-1 was determined as 70 fold; in experiment [2], 4.2 fold.

Values taken from patent publication EP1506972A1 (Genentech Inc., dated 2005).
